Data reported in PubChem BioAssay AID1745853 (National Center for Advancing Translational Sciences (NCATS), 2022).
This is one part of the list. Shown are side measurements of this screen, not its main read-out; they come without a call.

Legend:
Experiment in all cases: Primary Screen for Target Class Profiling of Small Molecule Inhibitors of Methyltransferases
[1] = target: Glycine N-methyltransferase (Homo sapiens) (UniProt Q14749); conditions: purified enzyme, MTase-Glo SAH luminescence; measured here: GNMT inhibition; at 40 µM; stronger effect = lower value
Summary of the method: (§1)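 Each enzyme was assayed with SAM and its substrate. SAH formation detected by MTase-Glo luminescence; single-point 40 uM screen[…].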

[2] = target: Guanidinoacetate N-methyltransferase (Homo sapiens) (UniProt Q14353); conditions: purified enzyme, MTase-Glo SAH luminescence; measured here: GAMT inhibition; at 40 µM; stronger effect = lower value
Summary of the method: as §1

[3] = target: Histamine N-methyltransferase (Homo sapiens) (UniProt P50135); conditions: purified enzyme, MTase-Glo SAH luminescence; measured here: HNMT inhibition; at 40 µM; stronger effect = lower value
Summary of the method: as §1

[4] = target: Nicotinamide N-methyltransferase (Homo sapiens) (UniProt P40261); conditions: purified enzyme, MTase-Glo SAH luminescence; measured here: NNMT inhibition; at 40 µM; stronger effect = lower value
Summary of the method: as §1

[5] = target: Phenylethanolamine N-methyltransferase (Homo sapiens) (UniProt P11086); conditions: purified enzyme, MTase-Glo SAH luminescence; measured here: PNMT inhibition; at 40 µM; stronger effect = lower value
Summary of the method: as §1
% is set by controls: 0 for no effect and ±100 for the full control effect.

| Structure (SMILES) | activity change, negative = inhibition [1] | activity change, negative = inhibition [2] | activity change, negative = inhibition [3] | activity change, negative = inhibition [4] | activity change, negative = inhibition [5] |
| --- | --- | --- | --- | --- | --- |
| CC1(C)[C@H](Cc2cc(CN3CCCCC3)on2)C[C@@H]1N | -1.31% | 1.64% | -1.87% | -1.97% | 9.36% |
| CCOC(=O)c1cc2n(n1)CC(C)(C(=O)NC1CCC(C)CC1)N(c1ccc(C)c(C)c1)C2=O (stereo not drawn) | 4.43% | 0.514% | 3.97% | -2.42% | 4.65% |
| c1cc2c(cc1OC1CNC1)OCO2 | -1.81% | -1.59% | -3.11% | -1.94% | -5.29% |
| CN(Cc1cc(C[C@@H]2C[C@H](NC(=O)C(C)(C)C)C2(C)C)no1)c1ccccc1 | -4.12% | 2.57% | -1.73% | -22.2% | 4.65% |
| O=c1onc2cnc3ccccc3n12 | -31.5% | -1.71% | -7.51% | -17.5% | -3.62% |
| CC(C)(C)OC(=O)N[C@H]1CCCCCC=C[C@@H]2C[C@@]2(C(=O)NS(=O)(=O)C2CC2)NC(=O)[C@@H]2C[C@@H](OC(=O)N3Cc4cccc(F)c4C3)CN2C1=O | -9.11% | 6.05% | 7.63% | -16.4% | 0.571% |
| COc1cccc(CN2CC[C@@](O)(C3CC3)[C@H](C)C2)c1OC | -2.59% | -2.35% | -1.39% | -5.38% | -0.421% |
| CC(C)c1ccc(NS(=O)(=O)c2ccc3c(c2)n(C)c(=O)n3C)cc1 | -6.55% | 0.786% | -3% | -22.5% | -6.63% |
| Cc1cccc(O[C@H]2COCCN(c3nc4ccccc4o3)C2)n1 | -7.1% | -4.72% | -3.47% | -49.2% | -3.96% |
| CC1CCCN(C(=O)Cn2c(=O)oc3cc(S(=O)(=O)N4CCCCC4)ccc32)C1 (stereo not drawn) | 0.6% | 2.65% | 9.27% | 15% | -0.599% |
| COc1cccc(S(=O)(=O)N2CCC(c3noc(-c4ccccn4)n3)C2)c1 (stereo not drawn) | -3.07% | -1.51% | -0.527% | -9.91% | -3.89% |
| CC(=O)N[C@H]1[C@H](O[C@H]2CC[C@@]3(C)C(CC[C@]4(C)C3CC=C3C5CC(C)(C)CC[C@]5(C(=O)O)C(O)C[C@]34C)C2(C)C)O[C@H](CO[C@@H]2O[C@H](C)[C@H](O)[C@H](O)[C@H]2O[C@@H]2OC[C@@H](O)[C@H](O)[C@H]2O)[C@@H](O)[C@@H]1O (stereo partly drawn) | -0.794% | -1.84% | 4.68% | -10.1% | -1.71% |
| c1ccc(CNc2ncc(-c3ccc(N4CCOCC4)cc3)c3c2OCC3)cc1 | -35% | -31.2% | -7.35% | -17.5% | -35.1% |
| C[C@@]12CO[C@@H](Cc3ccccc3)O[C@@H]1CC[C@]1(C)C2CC[C@@H](O)[C@H]1CC(=O)NCc1cc(F)cc(F)c1 (stereo partly drawn) | -4.79% | -5.16% | -1.8% | -8.03% | -4.99% |
| Cc1ccc(Nc2nc(C)cc3nn(CC(=O)Nc4ccc5c(c4)OCCO5)c(=O)n23)cc1 | 13.1% | 2.27% | 8.35% | 3.89% | 4.01% |
| O=C1CN(Cc2ccccc2Cl)S(=O)(=O)c2ccccc2N1Cc1ccc(F)cc1 | 2.14% | 0.626% | 10.4% | -5.01% | -3.84% |
| COC(=O)CC(O)C1OC(c2ccccc2)C(O)C1O (stereo not drawn) | -3.04% | -2.57% | 0.924% | -12.5% | 3.32% |
| COC(=O)Cn1c(=O)oc2cc(S(=O)(=O)NCCN3CCOCC3)ccc21 | 5.1% | 0% | 9.41% | 6.47% | 5.17% |
| Cn1c(=O)c2ccc(C(=O)NC3CCCCC3)cc2n2c(=O)n(CC(=O)NC3CCCC3)nc12 | 2.89% | 2.74% | -0.349% | 0.733% | 2.27% |

| Structure (SMILES) | activity change, negative = inhibition [1] | activity change, negative = inhibition [2] | activity change, negative = inhibition [3] | activity change, negative = inhibition [4] | activity change, negative = inhibition [5] |
| --- | --- | --- | --- | --- | --- |
| C[C@]12CC[C@@H]3c4ccc(OC(=O)c5ccccc5)cc4CC[C@H]3[C@@H]1CC[C@@H]2O | 6.36% | 3.73% | 8.73% | -12.8% | -4.97% |
| CC(O)CCc1ccc(O[C@@H]2O[C@H](CO)[C@@H](O)[C@H](O)[C@H]2O)cc1 (stereo partly drawn) | 1.48% | 2.43% | 6.27% | -7.25% | -2.34% |
| CC(=O)c1c(C)cc(O[C@@H]2O[C@H](CO)[C@@H](O)[C@H](O)[C@H]2O)cc1O | 1.43% | -3.11% | 4.31% | -12.1% | 1.71% |
| COc1ccc(Br)cc1CNC(=O)c1cc2n(n1)CC(C)(C(=O)NCc1ccccc1)N(C)C2=O (stereo not drawn) | 4.62% | 0% | 5.99% | 3.95% | 4.78% |
| CCCn1c(=O)c2ccc(C(=O)NC3CCCCC3)cc2n2c(=O)n(C)nc12 | -5.44% | -9.31% | -6.12% | -7.07% | -6.53% |
| Cc1nnc(N2CCC3(CCC(=O)N(CCCN(C)C)C3)CC2)c2ccccc12 | -19.3% | -4.65% | -9.36% | -6.75% | -12.4% |
| CN(c1nccc(=O)[nH]1)C1CCN(c2nc3ccccc3n2Cc2ccc(F)cc2)CC1 | -5.12% | -0.499% | 2.93% | -47.2% | 0.258% |
| COc1ccc(OC)c2c1cc1n2CC(C)(C(=O)NC2CCCCCC2)N(Cc2ccccn2)C1=O (stereo not drawn) | -36.3% | -13.1% | -5.18% | -25.8% | -43.9% |
| CC(C)OCCCNc1nc2c(S(=O)(=O)c3ccc(Br)cc3)nnn2c2ccccc12 | -4.03% | -5.14% | -1.1% | -3.13% | -5.3% |
| CCn1c(CN2CCN(c3nc(C)cnc3C)CC2)nnc1C1CC(N)C1 (stereo not drawn) | -6.16% | -2.33% | -2.1% | -11.3% | -2.62% |
| COC(=O)[C@H](CC1CCCCC1)NC(=O)[C@@H]1CN(C(=O)c2ccc(N(C)C)cc2)CCN1C(C)=O | -1.53% | -5.14% | -1.07% | -7.79% | -1.69% |
| CC(C)c1ccc(S(=O)(=O)c2nnn3c2nc(NC2CCCC2)c2ccccc23)cc1 | -2.93% | 1.43% | -3.81% | -3.95% | -7.33% |
| Cc1nc(C(=O)N2CCC[C@H]2Cc2nnc(-c3ccccc3)o2)c(-c2ccccc2F)s1 | -3.01% | 6.48% | 9.16% | -19% | 0.343% |
| CCCCN1C(=O)c2cc(C(=O)NCCc3cccs3)nn2CC1(C)C(=O)NC1CCCC1 (stereo not drawn) | 2.86% | 0% | -21% | 4.7% | 2.43% |
| O=C(NCCN1C(=O)C2(CCCCC2)C1c1ccccc1)NCc1ccccc1 (stereo not drawn) | -10.3% | 3.68% | -1.57% | -5.3% | -0.085% |
| CCCn1c(=O)c2ccccc2n2c(SCC(=O)Nc3cccc(C)c3)nnc12 | -3.22% | 0% | 9.97% | -3.19% | -7.56% |
| CCN(CCN(C)C)C(=O)CNCc1cc(C(=O)O)ccn1 | – | 2.78% | – | -10.8% | -0.3% |
| CCc1noc(-c2cn(C3CCN(C(=O)COc4ccccc4)C3)nn2)n1 (stereo not drawn) | -4.25% | -10% | -3.5% | -11.4% | -6.7% |
